For this test, the system named is Mtb-infected macrophage. The following applies: 1 μM, 5 μM, 10 μM, about 24 hours.

*1 amine or outer side, *2 acyl side, *3 side chain or, on linkers, in order; H or OH if unused. Where a SMILES comes first, the peptide text is derived from it. Bridges are numbered along the chain shown (N, C = ends). [ ]: non-standard residue; d: D form. The star is where a group is joined. ξ: configuration not given here. NMeTrp(4-OMe) = CN[CH](Cc1c[nH]c2cccc(OC)c12)C(=O)O; X1 = O=C(C(N[*:1])C(O)c1ccccc1)[*:2]; ξNMe2Val = CC(C)C(C(=O)*)N(C)C; NMeT = CN[CH](C(=O)O)[CH](C)O; NMeL = CN[CH](CC(C)C)C(=O)O; NMeV = CN[CH](C(=O)O)C(C)C

As for `CNC(C(=O)NC(C(=O)NC1C(=O)N(C)C(C(C)O)C(=O)NC(C(C)C)C(=O)N(C)C(CC(C)C)C(=O)NC(C(C)C)C(=O)N(C)C(C(C)C)C(=O)N(C)C(Cc2c[nH]c3cccc(OC)c23)C(=O)NC(C(C)C)C(=O)NC(C(O)c2ccccc2)C(=O)NC(C(C)C)C(=O)OC1C)C(C)C)C(C)C` (centres unmarked) [OMS-A, Ohmyungsamycin A] (H-[NMeV]VT[NMeT]V[NMeL]V[NMeV][NMeTrp(4-OMe)]V[X1]V; ester 3-C; configuration not given here), the “amount of IL-1β secreted (FIG. 12A)” value was “decreased in a concentration-dependent manner”, the “amount of IL-6 secreted (FIG. 12A)” value is “decreased in a concentration-dependent manner”, the “amount of IL-12 p40 secreted (FIG. 12A)” value was “decreased in a concentration-dependent manner” and the “amount of TNF-α secreted (FIG. 12A)” value is “decreased in a concentration-dependent manner”.
Regarding `COc1cccc2[nH]cc(CC3C(=O)NC(C(C)C)C(=O)NC(C(O)c4ccccc4)C(=O)NC(C(C)C)C(=O)OC(C)C(NC(=O)C(NC(=O)C(C(C)C)N(C)C)C(C)C)C(=O)N(C)C(C(C)O)C(=O)NC(C(C)C)C(=O)N(C)C(CC(C)C)C(=O)NC(C(C)C)C(=O)N(C)C(C(C)C)C(=O)N3C)c12` (centres unmarked) [OMS-B, Ohmyungsamycin B] (ξNMe2Val-VT[NMeT]V[NMeL]V[NMeV][NMeTrp(4-OMe)]V[X1]V; ester 2-C; configuration not given here), the “amount of IL-1β secreted (FIG. 12A)” value was “decreased in a concentration-dependent manner”, the “amount of IL-6 secreted (FIG. 12A)” value is “decreased in a concentration-dependent manner”, the “amount of IL-12 p40 secreted (FIG. 12A)” value is given as “decreased in a concentration-dependent manner” and the “amount of TNF-α secreted (FIG. 12A)” value is listed as “decreased in a concentration-dependent manner”.

Source of the values: patent publication US10702575B2, “Pharmaceutical composition for preventing or treating mycobacterium species infection and method using the same” (Seoul National University R&DB Foundation, priority 2017, dated 2020).
